Assay results: the supplement of paper PMC4166925
± gives the standard deviation of the averaged measurements. Whole data set: some 33,000 sequences, median “E-score (dimensionless, -0.5 to 0.5)” near -0.049, cut for the highest 2% near 0.37. This is one part of the list.

What follows are sequences tested on T1, PmTbr T-box DNA-binding domain (GST fusion) (assay: PBM E-score of 8-mer (E-score (dimensionless, -0.5 to 0.5)); Tbr is Tbrain of the sea star Patiria miniata (Pm) or the sea urchin Strongylocentrotus purpuratus (Sp); higher = stronger binding preference; most listed sequences are background and not binding sites). Details: the construct has about 5 more residues each side.
T1 sequence: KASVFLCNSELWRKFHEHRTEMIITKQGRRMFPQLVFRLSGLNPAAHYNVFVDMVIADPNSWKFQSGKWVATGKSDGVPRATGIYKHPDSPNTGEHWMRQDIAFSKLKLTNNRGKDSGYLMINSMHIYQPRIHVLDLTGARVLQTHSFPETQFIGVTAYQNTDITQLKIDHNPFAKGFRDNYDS
Method in brief: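 Each ungapped 8-mer received an enrichment E-score from the Universal PBM Analysis Suite, averaged over duplicate arrays. The proteins were Tbr T-box DNA-binding domains, covering the whole T-box plus about five flanking residues, fused to GST and expressed in BL21 E. coli at 20 °C before glutathione affinity purification. Universal Agilent oligonucleotide arrays were made double-stranded by primer extension and incubated with 200 nM protein in PBS (pH 7.5). The arrays were then scanned and quantified, and every 8-mer was scored from probe intensities.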

Sequence | PBM E-score of 8-mer
CTTTAATA | -0.23 ± 0.028
AGACAAAC | 0.00019 ± 0.011
CGTCGAAC | -0.0874 ± 0.071
CTAGTGGC | -0.0119 ± 0.017
AACAGGTA | 0.126 ± 0.015
AATAGGCC | -0.231 ± 0.066
CAGATCCG | -0.0367 ± 0.13
AAATAGCC | -0.0974 ± 0.016
CACAACTG | 0.225 ± 0.0095
GGCAGCAC | 0.165 ± 0.059
CTTGGAAC | -0.257 ± 0.017
GGTCCGGA | -0.105 ± 0.037
CGATGTTC | 0.0373 ± 0.08
GCGGCGCA | -0.0677 ± 0.08
ATTGGTGC | 0.256 ± 0.015
GAACAAGA | -0.0306 ± 0.044
CTATACAA | -0.216 ± 0.054
TAATAATA | -0.151 ± 0.11
CGGAGCGC | 0.108 ± 0.013
GTTCTGAA | -0.247 ± 0.048
TAGGCTCA | 0.00615 ± 0.049
CAGCACCA | 0.0936 ± 0.032
TCTTGACA | 0.316 ± 0.012
ACTAAGTG | 0.254 ± 0.016
CGGTCTAA | -0.146 ± 0.036

Sequence | PBM E-score of 8-mer
CGGGCGTA | -0.0486 ± 0.018
GAGGAGCA | -0.318 ± 0.016
ATCGTTTC | 0.134 ± 0.0054
CCAGAACA | -0.0746 ± 0.061
GCAAAGCC | -0.0731 ± 0.023
AAAACTAG | -0.252 ± 0.11
CATTATCC | -0.0633 ± 0.044
CACGGTAC | 0.00264 ± 0.0099
GCGTTCTA | -0.0437 ± 0.035
AAAGATGG | -0.148 ± 0.014
GAAGTATA | 0.0277 ± 0.11
GAGCATGA | 0.14 ± 0.0078
CCTGCACC | 0.153 ± 0.02
CAATCTGA | -0.242 ± 0.054
CAGCTCAC | 0.14 ± 0.0033
CTTTGTCC | 0.109 ± 0.0064
ACCCCGCC | 0.119 ± 0.051
ACCAACAG | 0.127 ± 0.018
CCCGCCCA | 0.0932 ± 0.075
AACCTGGT | 0.025 ± 0.064
ACTAGCCT | -0.0251 ± 0.036
ACCAGGAA | -0.145 ± 0.072
ACACCCCT | 0.4 ± 0.027
GCGTACCA | -0.168 ± 0.014
AGTGGCGC | 0.242 ± 0.02

Sequence | PBM E-score of 8-mer
GGCAGACC | -0.184 ± 0.061
AGGGTGTG | 0.43 ± 0.027
GAGTCGGC | -0.126 ± 0.033
ACCTTCGT | 0.268 ± 0.026
CGTCAGAA | 0.0686 ± 0.037
CTCTTTCA | 0.114 ± 0.054
CTCCATGC | -0.036 ± 0.11
AAATGCTT | -0.0118 ± 0.11
AATCCGCC | -0.0827 ± 0.037
CCGATCGG | 0.0432 ± 0.047
TCAGCACA | 0.179 ± 0.015
ACGGATGA | -0.141 ± 0.037
ATCCAGAT | -0.0794 ± 0.027
ACGTTAGT | -0.0518 ± 0.04
CCCCTTCA | -0.236 ± 0.03
GTTCGGAA | -0.052 ± 0.074
GGCTAGGA | -0.184 ± 0.03
ACTGACTC | -0.00199 ± 0.0047
GATCCATA | -0.332 ± 0.032
GAACGCCA | 0.0259 ± 0.069
ACCCGGTA | -0.0268 ± 0.0011
TGCTTGAA | -0.172 ± 0.088
CTGAGGTC | -0.0761 ± 0.022
CAAGTGAC | 0.325 ± 0.021
CTGGGTTA | -0.119 ± 0.027

Sequence | PBM E-score of 8-mer
GAGGTTCC | -0.156 ± 0.0053
CCTCTTGC | 0.0502 ± 0.011
AAAGCTAT | -0.204 ± 0.025
CATAGAGC | -0.00675 ± 0.012
AATGCACC | 0.0196 ± 0.12
CTGGAAGC | -0.212 ± 0.051
AATTAACC | -0.187 ± 0.072
ATACGACA | 0.174 ± 0.071
ATAAGAAT | 0.0516 ± 0.12
AAAGGCCA | -0.118 ± 0.038
AGCAACGC | 0.173 ± 0.041
ACATTACA | -0.0558 ± 0.034
ACCAGTAA | -0.14 ± 0.018
GGCCTCAC | 0.00634 ± 0.045
AAACTGTG | 0.207 ± 0.013
GATGACAA | 0.202 ± 0.017
AGGCGCTC | -0.0321 ± 0.061
GCGAACAC | 0.319 ± 0.013
CCTTGCAG | -0.0559 ± 0.093
TAACTCAA | -0.209 ± 0.0068
ATCTGCTG | 0.0577 ± 0.084
ATATGCGA | 0.106 ± 0.023
CCAGGGGC | -0.0978 ± 0.12
CTCCCCCA | -0.0388 ± 0.04
CTCACCTC | 0.449 ± 0.009

Sequence | PBM E-score of 8-mer
CCTCGGGC | 0.0293 ± 0.059
CCACATTA | 0.126 ± 0.0023
ACGGAGGA | -0.11 ± 0.055
CGCGAGTA | 0.281 ± 0.0075
AACGACGG | -0.0314 ± 0.013
CATTGTGA | 0.12 ± 0.045
CTAGTCGA | 0.146 ± 0.032
ACCAGACA | -0.0847 ± 0.055
GACCATGA | -0.209 ± 0.053
CTGAACCA | -0.0413 ± 0.037
TGAATCCA | -0.14 ± 0.054
CAACGAGC | -0.0764 ± 0.048
AATCGTGC | 0.184 ± 0.035
GTCCAAAA | -0.155 ± 0.015
AAAAAGTC | -0.216 ± 0.059
AACGACAT | 0.0687 ± 0.0068
TGCAGACA | -0.0393 ± 0.082
AAGGCTGC | -0.0964 ± 0.003
CTTTCAGA | -0.0421 ± 0.042
CGACGGCG | 0.135 ± 0.045
ACTTACCT | 0.125 ± 0.053
CGCCAATA | 0.153 ± 0.015
AATGCCTA | -0.00871 ± 0.019
GAAGTAAA | -0.2785 ± 0.001
AGTGAGAC | 0.251 ± 0.023

Sequence | PBM E-score of 8-mer
TCATGGGA | -0.216 ± 0.025
CTAGGCGC | 0.128 ± 0.0018
CTATACCA | -0.205 ± 0.013
CGAGTCAG | -0.0412 ± 0.051
AACTTGAT | -0.215 ± 0.015
GGACGTAC | -0.215 ± 0.011
AGTAGTAT | -0.133 ± 0.021
ACAGCAGC | 0.0435 ± 0.039
CACTCCAG | 0.156 ± 0.04
CAGCTGAG | 0.0178 ± 0.036
CATTTCTC | 0.198 ± 0.05
TGAGAAAA | 0.271 ± 0.098
GCACTGCC | -0.0126 ± 0.026
AACCCCCA | -0.166 ± 0.035
AAACCGAT | -0.0542 ± 0.0059
CAGCGGCC | -0.149 ± 0.076
GCGGCTCA | -0.0885 ± 0.072
CGTTATAG | -0.153 ± 0.018
ATGTGGTG | 0.186 ± 0.013
ACAACAGA | -0.0956 ± 0.033
ACATATCG | 0.0131 ± 0.017
TACCCGAA | -0.218 ± 0.025
CGCACCTA | 0.422 ± 0.0048
CGTACTTC | -0.1764 ± 0.00051
ATAGGCAG | -0.223 ± 0.014

Sequence | PBM E-score of 8-mer
GAGGTTCA | -0.0519 ± 0.054
AACTTATC | 0.0676 ± 0.1
ATCACCCC | 0.289 ± 0.028
AGCCCAGA | -0.0817 ± 0.013
CCTAGCCG | -0.0395 ± 0.018
CTAAAAAC | -0.109 ± 0.062
GCGCGTCC | 0.0283 ± 0.0097
TCGTGTCA | 0.305 ± 0.0037
ACTGATTA | -0.122 ± 0.037
AAACTATG | -0.157 ± 0.0096
ACGTTAAA | -0.118 ± 0.0082
CCCTGCGC | 0.115 ± 0.035
CCACGTAG | 0.122 ± 0.067
CGTTAAAG | 0.0719 ± 0.05
CGTGCTTC | -0.135 ± 0.044
GCGCTTCA | 0.0829 ± 0.026
AAGGGGCG | 0.117 ± 0.025
AAGACCAA | -0.21 ± 0.041
GAGACTGC | -0.126 ± 0.047
CGAAGCTA | -0.163 ± 0.003
GCAACAAA | 0.0977 ± 0.037
CGCCTCTA | 0.109 ± 0.021
